In PubChem BioAssay (NCI) one finds GI50 and TGI data, which are given here for two compounds.

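Compound exposure: 48 hours, 5 concentrations, 96-well plates. Here, GI50 denotes the concentration required for 50% inhibition of growth. TGI denotes the concentration required for complete inhibition of growth.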

Broadly, the GI50 is the concentration at which growth is held to half of that of the control. Usually TGI stands for the concentration giving total growth inhibition. Read a high TGI as lower sensitivity of the cells.

The test system of this experiment is NCI-H322M lung. The experiment can be described thus: DTP human tumour cell line panel, 48 h.

In the case of `C=CC(=O)Nc1ccc(C(=O)/C=C/c2ccc(N(C)C)cc2)c(O)c1`, the GI50 was 7.31 µM and the TGI was found to be 22 µM.
Taken in the same sequence, the figures for `c1n[nH]cc1-c1nc2ccc3[nH]ncc3c2c2c1CC1(CCOCC1)CC2` were 15.4 µM and 50.3 µM.
